Data published in PubChem BioAssay AID1745853 (National Center for Advancing Translational Sciences (NCATS), 2022).
Several values for one entry are separate records, joined by “and”; a condition that tells them apart may be missing. Equal values may be shown once. Some of the results follow. Further columns of the screen follow, without active or inactive calls.

Tests used:
Assay in all cases: Primary Screen for Target Class Profiling of Small Molecule Inhibitors of Methyltransferases
[1] = target: Glycine N-methyltransferase (Homo sapiens) (UniProt Q14749); settings: purified enzyme, MTase-Glo SAH luminescence; measured here: GNMT inhibition; at 40 µM; stronger effect = lower value
Summary of the method: (§1)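 Each enzyme was reacted with SAM and its substrate, with compounds tested once at 40 uM; SAH formed was read by MTase-Glo luminescence.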

[2] = target: Guanidinoacetate N-methyltransferase (Homo sapiens) (UniProt Q14353); settings: purified enzyme, MTase-Glo SAH luminescence; measured here: GAMT inhibition; at 40 µM; stronger effect = lower value
Summary of the method: as §1

[3] = target: Histamine N-methyltransferase (Homo sapiens) (UniProt P50135); settings: purified enzyme, MTase-Glo SAH luminescence; measured here: HNMT inhibition; at 40 µM; stronger effect = lower value
Summary of the method: as §1

[4] = target: Nicotinamide N-methyltransferase (Homo sapiens) (UniProt P40261); settings: purified enzyme, MTase-Glo SAH luminescence; measured here: NNMT inhibition; at 40 µM; stronger effect = lower value
Summary of the method: as §1

[5] = target: Phenylethanolamine N-methyltransferase (Homo sapiens) (UniProt P11086); settings: purified enzyme, MTase-Glo SAH luminescence; measured here: PNMT inhibition; at 40 µM; stronger effect = lower value
Summary of the method: as §1
% is set by controls: 0 for no effect and ±100 for the full control effect.

Molecule `O=C(c1cc(F)ccc1F)N1CCC(Oc2cccnc2)C1` (stereo not given) has an activity change, negative = inhibition [1] of 0.135%, an activity change, negative = inhibition [2] of -0.543% and an activity change, negative = inhibition [3] of 0.016%. For the same molecule, the activity change, negative = inhibition [4] was -3.44% and the activity change, negative = inhibition [5] was -1.35%.

Molecule `CCCn1c(=O)c2ccc(C(=O)NC3CCCC3)cc2n2c(=O)n(Cc3cccc(OC)c3)nc12` has an activity change, negative = inhibition [1] of -2.99%, an activity change, negative = inhibition [2] of 2.14% and an activity change, negative = inhibition [3] of 2.58%. It also gave an activity change, negative = inhibition [4] of -4.36% and an activity change, negative = inhibition [5] of -0.231%.

For `COc1ccc(N2C(=O)[C@@H]3Cc4nc[nH]c4CN3C2=O)cc1`, the activity change, negative = inhibition [1] was -1.74%, the activity change, negative = inhibition [2] was -7.64% and the activity change, negative = inhibition [3] was -0.023%. For the same molecule, the activity change, negative = inhibition [4] was -13.7% and the activity change, negative = inhibition [5] was -5.23%.

Work on `CC(=O)Nc1ccc(-c2c(C(C)C)nn(-c3cccc(F)c3)c2OC(C)=O)cc1` yielded an activity change, negative = inhibition [1] of -0.962%, an activity change, negative = inhibition [2] of 4.37% and an activity change, negative = inhibition [3] of 2.33%. It also gave an activity change, negative = inhibition [4] of 1.49% and an activity change, negative = inhibition [5] of 16.4%.

Work on `CCCn1c(=O)c2cc(Cl)ccc2n2c(=O)n(CC(=O)NCc3ccccc3Cl)nc12` yielded an activity change, negative = inhibition [1] of -4.2%, an activity change, negative = inhibition [2] of -7.3% and an activity change, negative = inhibition [3] of 3.69%. It also gave an activity change, negative = inhibition [4] of -5.68% and an activity change, negative = inhibition [5] of -5.78%.

`CC1(C)[C@@H](O)CC[C@]2(C)[C@H]3C(=O)C=C4[C@@H]5C[C@@](C)(C(=O)O)CC[C@]5(C)CC[C@@]4(C)[C@]3(C)CC[C@@H]12` was tested, and the activity change, negative = inhibition [1] was -10.1%, the activity change, negative = inhibition [2] was 7.57% and -0.599% and the activity change, negative = inhibition [3] was 4.09%. The activity change, negative = inhibition [4] was -23% and -16.7% and the activity change, negative = inhibition [5] was -3.26% and -9.38%.

`Cc1cccc(-c2nc3cc(C(=O)NCc4ccc(F)cc4)ccc3o2)n1` showed an activity change, negative = inhibition [1] of -3.81%, an activity change, negative = inhibition [2] of -6.39% and an activity change, negative = inhibition [3] of -2.2%. It also gave an activity change, negative = inhibition [4] of -5.68% and an activity change, negative = inhibition [5] of -4.97%.

Molecule `CC(C)CCNC(=O)C1(C)Cn2c(cc3ccccc32)C(=O)N1Cc1ccc(N(C)C)cc1` (stereo not given) has an activity change, negative = inhibition [1] of -0.258%, an activity change, negative = inhibition [2] of 0% and an activity change, negative = inhibition [3] of -2.82%. For the same molecule, the activity change, negative = inhibition [4] was -6.68% and the activity change, negative = inhibition [5] was -3.19%.

Work on `COC(=O)c1ccc([C@@H]2Nc3c(OC)cccc3[C@@H]3C=CC[C@@H]32)cc1` yielded an activity change, negative = inhibition [1] of -5.69%, an activity change, negative = inhibition [2] of -2.74% and an activity change, negative = inhibition [3] of -6.33%. It also gave an activity change, negative = inhibition [4] of -16.7% and an activity change, negative = inhibition [5] of -11.2%.

Molecule `CN1CCN(Cc2ccc(NC(=O)Nc3ccc(Oc4cc(NC(=O)C5CC5)ncn4)cc3)cc2C(F)(F)F)CC1` has an activity change, negative = inhibition [1] of -6.49%, an activity change, negative = inhibition [2] of 18.2% and an activity change, negative = inhibition [3] of -92.2%. For the same molecule, the activity change, negative = inhibition [4] was -16.2% and the activity change, negative = inhibition [5] was -8.44%.

`Cn1c(=O)c2ccc(C(=O)NC3CCCC3)cc2n2c(=O)n(CC(=O)NCc3ccccc3Cl)nc12` gave an activity change, negative = inhibition [1] of 3.47%, an activity change, negative = inhibition [2] of 1.47% and an activity change, negative = inhibition [3] of 1.04%. The activity change, negative = inhibition [4] was 0.591% and the activity change, negative = inhibition [5] was -2.69%.

`COc1ccc(-c2ccc3ccccc3n2)c(OC)c1OC` gave an activity change, negative = inhibition [1] of -7.65%, an activity change, negative = inhibition [2] of -1.86% and an activity change, negative = inhibition [3] of -3.52%. For the same molecule, the activity change, negative = inhibition [4] was -3.08% and the activity change, negative = inhibition [5] was -0.713%.

`Cn1c(=O)n(C)c2cc(S(=O)(=O)N3CCN(c4ccccn4)CC3)c(Cl)cc21` gave an activity change, negative = inhibition [1] of 10.5%, an activity change, negative = inhibition [2] of 0.952% and an activity change, negative = inhibition [3] of 8.89%. For the same molecule, the activity change, negative = inhibition [4] was 2.98% and the activity change, negative = inhibition [5] was 7.4%.

`COc1cccc(CNC(=O)c2cc3n(n2)CC(C)(C(=O)NC2CCCCC2)N(C)C3=O)c1` (stereo not given) was tested, and the activity change, negative = inhibition [1] was 4.79%, the activity change, negative = inhibition [2] was 0% and the activity change, negative = inhibition [3] was 4.39%. The activity change, negative = inhibition [4] was 6.7% and the activity change, negative = inhibition [5] was 1.2%.

In the case of `Cn1cncc1CN1CCC2(CCN(C3CCOCC3)CC2)C(CO)C1` (stereo not given), the activity change, negative = inhibition [1] was -1.66%, the activity change, negative = inhibition [2] was 0.924% and the activity change, negative = inhibition [3] was -0.496%. The activity change, negative = inhibition [4] was -1.55% and the activity change, negative = inhibition [5] was 12.4%.

`Cc1nc(C)c(C(=O)N2CCCC(c3nn(C)c(=O)n3C(C)C)C2)s1` (stereo not given) gave an activity change, negative = inhibition [1] of -3.74%, an activity change, negative = inhibition [2] of -12% and an activity change, negative = inhibition [3] of -5.26%. It also gave an activity change, negative = inhibition [4] of -11% and an activity change, negative = inhibition [5] of -10.4%.

For `O=C1CCCCCN1C1CCN(Cc2ccsc2)CC1`, the activity change, negative = inhibition [1] was -3.96%, the activity change, negative = inhibition [2] was -3.48% and the activity change, negative = inhibition [3] was -2.29%. For the same molecule, the activity change, negative = inhibition [4] was -6.94% and the activity change, negative = inhibition [5] was -6.11%.

In the case of `CCCn1c(=O)c2ccc(C(=O)NC(C)C)cc2n2c(SCC(N)=O)nnc12`, the activity change, negative = inhibition [1] was 2.49%, the activity change, negative = inhibition [2] was 4.37% and the activity change, negative = inhibition [3] was 5.22%. For the same molecule, the activity change, negative = inhibition [4] was -3.03% and the activity change, negative = inhibition [5] was 2.19%.

For `CCCN1C(=O)c2c(C(=O)NCc3cccc(OC)c3)ncn2CC1(C)C(=O)NCCC(C)C` (stereo not given), the activity change, negative = inhibition [1] was 1.34%, the activity change, negative = inhibition [2] was 1.48% and the activity change, negative = inhibition [3] was 2.8%. For the same molecule, the activity change, negative = inhibition [4] was 4.5% and the activity change, negative = inhibition [5] was 3.93%.

`CCc1cc2c(cc3n2CC(C)(C(=O)NC2CCCCC2)N(CCc2ccccc2)C3=O)s1` (stereo not given) showed an activity change, negative = inhibition [1] of -4.29%, an activity change, negative = inhibition [2] of 2.45% and an activity change, negative = inhibition [3] of 3.24%. The activity change, negative = inhibition [4] was 4.56% and the activity change, negative = inhibition [5] was -3.13%.

For `CC(C)Cn1c(=O)c2ccc(C(=O)NC(C)C)cc2n2c(=O)n(Cc3ccccc3Cl)nc12`, the activity change, negative = inhibition [1] was 3%, the activity change, negative = inhibition [2] was 4.8% and the activity change, negative = inhibition [3] was 6.18%. It also gave an activity change, negative = inhibition [4] of -2.68% and an activity change, negative = inhibition [5] of 3.69%.

In the case of `CCCS(=O)(=O)N1Cc2c(ncn2Cc2ccc(Cl)cc2)C[C@H]1C(=O)OC`, the activity change, negative = inhibition [1] was -2.07%, the activity change, negative = inhibition [2] was -1.29% and the activity change, negative = inhibition [3] was 1.62%. For the same molecule, the activity change, negative = inhibition [4] was -2.61% and the activity change, negative = inhibition [5] was 1.27%.

`COc1ccc(OC)c(CCNC(=O)CCc2nnc3n(CCC(C)C)c(=O)c4ccccc4n23)c1` was tested, and the activity change, negative = inhibition [1] was -14.7%, the activity change, negative = inhibition [2] was 1.98% and the activity change, negative = inhibition [3] was -0.776%. The activity change, negative = inhibition [4] was -21.5% and the activity change, negative = inhibition [5] was 0.431%.

`CCCn1c(=O)c2cc(F)ccc2n2c(SCC(=O)Nc3cccc(C)c3)nnc12` gave an activity change, negative = inhibition [1] of 1.84%, an activity change, negative = inhibition [2] of 2.68% and an activity change, negative = inhibition [3] of 13.1%. For the same molecule, the activity change, negative = inhibition [4] was 3.83% and the activity change, negative = inhibition [5] was 5.48%.

`O=C(CCCc1nnc2n3nc(-c4ccccc4)nc3c3ccccc3n12)N1CCN(C2CCCCC2)CC1` showed an activity change, negative = inhibition [1] of -7.36%, an activity change, negative = inhibition [2] of 1.81% and an activity change, negative = inhibition [3] of -27.4%. It also gave an activity change, negative = inhibition [4] of 0.165% and an activity change, negative = inhibition [5] of -3.53%.

`Cc1ccc(CCC(=O)N2C[C@@H](CN3CCOCC3)[C@@H](CO)C2)cc1` showed an activity change, negative = inhibition [1] of -0.246%, an activity change, negative = inhibition [2] of -0.767% and an activity change, negative = inhibition [3] of 0.198%. It also gave an activity change, negative = inhibition [4] of -0.159% and an activity change, negative = inhibition [5] of -3.31%.

`O=C1CC2CCN([S+](=O)([O-])c3cccs3)CC2CCN1` (stereo not given) gave an activity change, negative = inhibition [1] of -7.7%, an activity change, negative = inhibition [2] of -0.736% and an activity change, negative = inhibition [3] of 1.26%. For the same molecule, the activity change, negative = inhibition [4] was -5.87% and the activity change, negative = inhibition [5] was -3.42%.

`O=C(CCCN1CCC(O)(c2ccc(Cl)cc2)CC1)c1ccc(F)cc1` showed an activity change, negative = inhibition [1] of 4.15%, an activity change, negative = inhibition [2] of 11.8% and an activity change, negative = inhibition [3] of 7.4%. The activity change, negative = inhibition [4] was -8.97% and the activity change, negative = inhibition [5] was -4.18%.

Molecule `COCc1cc([C@H]2N[C@@](C)(C(=O)OC)[C@H]3C(=O)N(C)C(=O)[C@@H]23)ccc1OC` has an activity change, negative = inhibition [1] of -1.79%, an activity change, negative = inhibition [2] of -3.29% and an activity change, negative = inhibition [3] of -1.93%. It also gave an activity change, negative = inhibition [4] of -1.38% and an activity change, negative = inhibition [5] of 1.7%.
